Data on 51 compounds can be found in PubChem BioAssay AID602293 (National Center for Advancing Translational Sciences (NCATS), 2012).

Screen size: about 1,300 compounds; about 30 (2%) were called active. Inconclusive results (about 10%) are left out. Calls follow the shape of the dose curve; as a rule, active = well fitted inhibition curve with a large enough effect; inconclusive = small, poorly fitted or top-dose-only effect; inactive = flat fitted curve, though single readings scatter. The list shows a part of the results.
% is scaled to controls: 0 for no effect and ±100 for the full control effect.

The experiment can be described thus: qHTS for antagonists of the Thyroid Stimulation Hormone Receptor: Hit Validation in HTRF Activity in a Luteinizing Hormone Receptor Cell Line. The settings on record: LHR-expressing cell line, cAMP HTRF, antagonist mode; series mostly up to 58 µM; activity change, negative = inhibition: at the top concentration. The method, boiled down: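 HEK 293 cells stably expressing LH receptor, in DMEM with 10% FCS and 100 uM RO 20-1724, incubated with compound 30 min at room temperature. cAMP measured by competitive HTRF (anti-cAMP cryptate vs cAMP-d2), excitation 330 nm, emissions 615 and 660 nm.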
For orientation: qHTS replaces the single test concentration by a dilution series.
With `COc1ccccc1C(=O)COC(=O)/C=C/c1ccccc1`, the “activity change, negative = inhibition” value is inactive: -1.25%.
The figure for `CN(C)C(=O)[C@H]1C[C@H]1[C@@H](O)[C@H](CO)NC(=O)[C@H](COCc1ccccc1)NC(=O)OC(C)(C)C` is inactive: 3.51%; for `CC(C)c1cc(=O)n2[nH]c(SCc3ccccc3)nc2n1` it is inactive: 3.15%; for `COc1cc(NS(=O)(=O)c2ccc(NC(=O)c3ccc(F)cc3)cc2)ncn1` it is inactive: -2%.
The same measure for `Cc1cc(C)n2c(C)nnc2c1`: inactive: 0.721%; for `CN(C)/C=C(/C(=O)c1ccc(Cl)cc1)S(=O)(=O)c1ccc(Cl)cc1`: inactive: 2.4%.
The figure for `CC(=O)NC1=C(Nc2ccc(N(C)C)cc2)C(=O)c2ccccc2C1=O` is inactive: -3.23%; for `Cc1cc(C)c(-c2csc(NC(=O)/C=C/c3cccs3)n2)c(C)c1` it is inactive: -2.02%; for `NS(=O)(=O)c1ccc(CNC(=O)CCS(=O)(=O)Cc2ccccc2)cc1` it is inactive: 1.46%.
Turning to `CC1CN(C(=O)CCn2c(=O)oc3ccccc32)CC(C)O1` (stereo unspecified), the “activity change, negative = inhibition” value is inactive: 2.68%.
The same measure for `Cc1ccc(CCNC(=O)CN2C(=O)COc3ccc(S(=O)(=O)N4CCC(C)CC4)cc32)cc1`: inactive: 1.81%; for `Clc1ccc(CCNc2ncnc3nc[nH]c23)cc1`: inactive: -2.95%; for `COc1ccc(OC)c(NC(=O)c2cc(S(=O)(=O)NCc3ccco3)ccc2F)c1`: inactive: -2.65%.
The figure for `COc1cc([N+](=O)[O-])cc(/C=C2/SC(=S)N(Cc3ccccc3)C2=O)c1O` is inactive: -3.99%; for `Clc1ccc2c(c1)-c1nnc(Br)n1-c1ccccc1S2` it is inactive: -0.905%.
The figure for `NC(=O)NC[C@@H]1CC[C@@H](Cc2ccc(-c3ccccc3)cc2)O1` is inactive: 1.14%; for `COc1ccc(-n2nnnc2SCC(=O)NC2CCCC2)cc1OC` it is inactive: 3.12%.
Turning to `O=S(=O)(c1cccs1)N1CCN(CC(O)COc2cc(Cl)ccc2Cl)CC1` (stereo unspecified), the “activity change, negative = inhibition” value was inactive: -6.11%.
The figure for `Cc1cc(C)c(S(=O)(=O)c2c(C)cccc2C)c(Cl)n1` is inactive: -0.523%.
The same measure for `COC(=O)CN1C(=O)COc2ccc(S(=O)(=O)N3CCCC3)cc21`: inactive: 1.86%; for `O=C(Nc1ncc(S(=O)(=O)c2ccc([N+](=O)[O-])cc2)s1)c1ccc2ccccc2c1`: inactive: -3.12%; for `COc1ccc(NC(=O)c2ccc3ccccc3n2)cc1S(=O)(=O)Nc1ccccc1Cl`: inactive: 1.67%.
Turning to `CCn1nnc2cc(C(=O)NCC(c3ccccc3OC)N(C)C)ccc21` (stereo unspecified), the “activity change, negative = inhibition” value is inactive: 0.025%.
Take `CCCCCCSc1nsc(NC(C)=O)n1`: the “activity change, negative = inhibition” value is inactive: 2.54%.
The same measure for `Cc1ccc2oc(=O)c3cnn(CC(=O)N4CCN(c5ccccc5)CC4)c3c2c1`: inactive: -2.35%.
The figure for `Cc1occc1-c1nnc(SCC(=O)Nc2nc(C(C)(C)C)cs2)o1` is inactive: -0.969%; for `Cc1ccc2nc(NC(=O)C3CCN(S(=O)(=O)c4cc([N+](=O)[O-])ccc4Cl)CC3)sc2c1` it is inactive: -5.86%.
In the case of `O=c1cc(-c2ccccc2)nc2c(-c3ccccc3)c(C(F)(F)F)[nH]n12`, the “activity change, negative = inhibition” value is inactive: 1.06%.
`COc1cnc(SCc2ccc(Cl)cc2Cl)nc1Cl`: the “activity change, negative = inhibition” value was inactive: 1.36%.
Turning to `CC(CNC(=O)c1cc(COc2ccc3ncccc3c2)on1)c1ccccc1` (stereo unspecified), the “activity change, negative = inhibition” value is inactive: -4.02%.
Take `O=C(Nc1ncc(S(=O)(=O)c2ccc([N+](=O)[O-])cc2)s1)c1ccccc1F`: the “activity change, negative = inhibition” value was inactive: -0.0884%.
`CN(Cc1ccco1)S(=O)(=O)c1nnc(NC(=O)c2cccc(Cl)c2)s1`: the “activity change, negative = inhibition” value is inactive: -0.337%.
Regarding `Cc1cc2cc(CCNC(=O)c3ccc(S(=O)(=O)N4CCCC4)cc3)c(=O)[nH]c2cc1C`, the “activity change, negative = inhibition” value was inactive: 0.149%.
The figure for `CC(=O)Oc1c(I)cc(I)cc1C(=O)Nc1ccc(Cl)cc1` is inactive: -3.87%; for `CN1CCN(C2=CC3=CC(=C(C#N)C#N)CCC3CC2)CC1` (stereo unspecified) it is inactive: 0.754%.
The figure for `CC(=O)Nc1nc(C)c(Oc2ccc(C)cc2)c(=O)[nH]1` is inactive: -1.56%.
The figure for `CCCC(=NC(C)CC)C1=C(O)CC(c2ccccc2)CC1=O` (stereo unspecified) is inactive: -1.47%.
As for `COC(=O)c1ccc(C2N=C(c3cccs3)CC(c3ccccc3O)N2)cc1` (stereo unspecified), the “activity change, negative = inhibition” value was inactive: -2.24%.
In the case of `Cc1[nH]n(-c2ccccc2)c(=O)c1N=Nc1c(O)cc(S(=O)(=O)N(C)C)c2ccccc12`, the “activity change, negative = inhibition” value was inactive: -1.94%.
The figure for `c1ccc2c(Cn3nnc4ccccc43)cccc2c1` is inactive: 2.75%.
The same measure for `Nc1ncc(Br)cc1S(=O)(=O)Nc1cc(C(F)(F)F)cc(C(F)(F)F)c1`: inactive: -6.89%; for `CCOc1ccc(N(CC(=O)NCc2ccc(F)cc2)C(=O)CCC(=O)Nc2nccs2)cc1`: inactive: 1.3%; for `CN(C)c1nc(=S)nc(NCc2ccccc2)[nH]1`: inactive: 0.716%.
Consider `COCC(=O)N1CCC(n2nccc2NC(=O)c2ccccc2OC)CC1`, for which the “activity change, negative = inhibition” value was inactive: 1.78%.
`O=C(Nc1nc(-c2cccs2)cs1)c1cccc(S(=O)(=O)N2CCCCCC2)c1`: the “activity change, negative = inhibition” value is inactive: -3.67%.
The same measure for `COC(=O)c1ccc(O)c(Sc2cc(C(=O)OC)ccc2O)c1`: inactive: -1.81%; for `COc1ccc(Br)cc1/C=N/NC(=O)CN1CCCCC1`: inactive: 2.34%.
As for `O=C1/C(=C\c2cc([N+](=O)[O-])ccc2O)SC(=S)N1Cc1ccc(Cl)cc1`, the “activity change, negative = inhibition” value was inactive: -1.59%.
The same measure for `COC(=O)c1sc(-c2ccc(Cl)cc2)cc1NC(=O)/C=C/C(=O)O`: inactive: -4.96%; for `O=C(Nc1ccn(-c2ccccc2)n1)c1ccc(S(=O)(=O)N2CCCCCC2)cc1`: inactive: 0.221%; for `O=C(O)c1ccc(S(=O)(=O)/N=C2\C=C(Nc3ccccc3F)C(=O)c3ccccc32)cc1`: inactive: 0.79%.
